Laboratory results from article PMC5892938.
The list shows a part of the results. At the low end of the ranking the order means little.

Molecular target: GST-SBP-SLBP (stem-loop binding protein) (UniProt Q14493)
Assay: targeted RNA Bind-n-Seq;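 note: DESeq read counts versus GST-SBP nonspecific binding control pulldown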
Conditions: RBNS binding buffer: 25 mM Tris pH 7.5, 150 mM KCl, 3 mM MgCl2, 0.1% Tween, 0.5 mg/mL BSA, 1 mM DTT; 27 nM protein, 750 pM RNA pool; temperature not stated; high values mean tight binding

Sequence	binding signal (log2 fold change)
GGUCACGUCUCAAUCAACUCCUUAGAGGGGGGGAAAACCCCUUUACCCUCACCAUCAACAGCUCGCAGUCAAG	-0.3
GGUCACGUCUCAAUCAACUCUUAAGAGGGGGGGAAAACCCCUUUGCCCUCAACAUCAACAGCUCGCAGUCAAG	0.0647
GGUCACGUCUCAAUCAACUCUACUCCAGGAGUUUACUCCUGUUAAUUCAACAGCUCGCAGUCAAG	0.281
GGUCACGUCUCAAUCAACUCUUCUCCAGGAGUUUCCUCCUGCAUACUCAACAGCUCGCAGUCAAG	0.115
GGUCACGUCUCAAUCAACUCAUUUCCAGGAGUUUCCUCCUGUAUAUUCAACAGCUCGCAGUCAAG	-0.0166
GGUCACGUCUCAAUCAACUCUUCGCCCAGGGAAACCCCUGGUUAUUUCAACAGCUCGCAGUCAAG	-0.375
GGUCACGUCUCAAUCAACUCGUCUUCAGGAGUUUUCUCCUGCAAUCUCAACAGCUCGCAGUCAAG	0.0176
GGUCACGUCUCAAUCAACUCCAUAGAGGGGGGGAAAACCCCUUUACCCUCCAACUCAACAGCUCGCAGUCAAG	-0.386
GGUCACGUCUCAAUCAACUCUUCCCCCAGGGAAACCCCUGGCUUACUCAACAGCUCGCAGUCAAG	0.207
GGUCACGUCUCAAUCAACUCAAAAGAGGGGGGGAAAACCCCUUUACCCUCAACAUCAACAGCUCGCAGUCAAG	-0.189
GGUCACGUCUCAAUCAACUCAAUCCCCAGGGAAAGCCCUGGUUUAUUCAACAGCUCGCAGUCAAG	0.101
GGUCACGUCUCAAUCAACUCUUUCUCCAGGGAAAUCCCUGGUUUAUUCAACAGCUCGCAGUCAAG	0.135
GGUCACGUCUCAAUCAACUCUUCUCCCAGGGAAACCCCUGGCUAUUUCAACAGCUCGCAGUCAAG	0.186
GGUCACGUCUCAAUCAACUCAGUCCCAGGAGUUUACUCCUGCAUUUUCAACAGCUCGCAGUCAAG	-0.151
GGUCACGUCUCAAUCAACUCUUCCCCCAGGGAAAUCCCUGGUAUACUCAACAGCUCGCAGUCAAG	0.106
GGUCACGUCUCAAUCAACUCUACUCCAGGAGUUUUCUCCUGUUAUGUCAACAGCUCGCAGUCAAG	0.0811
GGUCACGUCUCAAUCAACUCAACUUCAGGAGUUUUCUCCUGUUUAUUCAACAGCUCGCAGUCAAG	-0.00173
GGUCACGUCUCAAUCAACUCAUCGUCAGGAGUUUUCUCCUGCUAACUCAACAGCUCGCAGUCAAG	0.0602
GGUCACGUCUCAAUCAACUCUAUUUCAGGAGUUUCCUCCUGCUUUUUCAACAGCUCGCAGUCAAG	-0.0774

Sequence	binding signal (log2 fold change)
GGUCACGUCUCAAUCAACUCCUUAGAGGGGGGGAAAACCCCUUUACCCUCGUCCUCAACAGCUCGCAGUCAAG	0.198
GGUCACGUCUCAAUCAACUCCUCAGAGGGGGGGAAAACCCCUUUACCCUCAUUUUCAACAGCUCGCAGUCAAG	-0.0139
GGUCACGUCUCAAUCAACUCUACUCCCAGGGAAAACCCUGGCAUUCUCAACAGCUCGCAGUCAAG	-0.172
GGUCACGUCUCAAUCAACUCAUGUCCAGGAGUUUACUCCUGUUAAUUCAACAGCUCGCAGUCAAG	-0.155
GGUCACGUCUCAAUCAACUCUUUUCCCAGGGAAAUCCCUGGUAAUCUCAACAGCUCGCAGUCAAG	0.087
GGUCACGUCUCAAUCAACUCAAUUUCCAGGGAAAACCCUGGCUAACUCAACAGCUCGCAGUCAAG	0.185
GGUCACGUCUCAAUCAACUCUUUCUCCAGGGAAAGCCCUGGCAUUUUCAACAGCUCGCAGUCAAG	-0.00434
GGUCACGUCUCAAUCAACUCUUCGUCAGGAGUUUACUCCUGUAUUCUCAACAGCUCGCAGUCAAG	-0.0507
GGUCACGUCUCAAUCAACUCUUUUCCCAGGGAAACCCCUGGUUUUUUCAACAGCUCGCAGUCAAG	-0.0744
GGUCACGUCUCAAUCAACUCAUUCUCCAGGGAAACCCCUGGCAAUUUCAACAGCUCGCAGUCAAG	-0.159
GGUCACGUCUCAAUCAACUCUUCUCCAGGAGUUUCCUCCUGCUAUUUCAACAGCUCGCAGUCAAG	0.068
GGUCACGUCUCAAUCAACUCUUCCUCCAGGGAAAUCCCUGGCUAUGUCAACAGCUCGCAGUCAAG	0.103
GGUCACGUCUCAAUCAACUCUAUUCCCAGGGAAAUCCCUGGCUAACUCAACAGCUCGCAGUCAAG	0.0585
GGUCACGUCUCAAUCAACUCAUUAGAGGGGGGGAAAACCCCUUUACCCUCCGUAUCAACAGCUCGCAGUCAAG	-0.394
GGUCACGUCUCAAUCAACUCAAUUUCCAGGGAAAACCCUGGUUUUUUCAACAGCUCGCAGUCAAG	-0.119
GGUCACGUCUCAAUCAACUCCAUAGAGGGGGGGAAAACCCCUUUGCCCUCAAAUUCAACAGCUCGCAGUCAAG	-0.0579
GGUCACGUCUCAAUCAACUCUAUGUCAGGAGUUUACUCCUGCUUAUUCAACAGCUCGCAGUCAAG	-0.0361
GGUCACGUCUCAAUCAACUCUACUCCCAGGGAAAUCCCUGGCAUUCUCAACAGCUCGCAGUCAAG	0.116
